# Among all 350,000 compounds or so, about 31,000 (8.9%) were called active. The inconclusive results got no clear call from the source; some entries with a clear call stand among them for comparison. Calls follow the shape of the dose curve; as a rule, active = well fitted inhibition curve with a large enough effect; inconclusive = small, poorly fitted or top-dose-only effect; inactive = no such curve, though single readings can be large or run the other way. Where the call is inconclusive, the potency comes from a doubtful curve fit.
# Biological target: Histone-lysine N-methyltransferase EHMT2 (Homo sapiens) (UniProt Q96KQ7)
# Assay: qHTS Assay for Inhibitors of Histone Lysine Methyltransferase G9a; also: nearly all actives have a fitted effect of over 75% in size
# Details: G9a H3K9 monomethylation, AlphaScreen, 2 h; activity, negative = inhibition: at 59 µM (top of the series) unless noted
# Method in brief: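 Readings reflect AlphaScreen signal from monomethyl-H3K9 antibody detection. HMT at 20 nM; substrate b-H3K9 500 nM; cofactor SAM 20 uM; 2 h RT reaction; compounds tested as titrations in qHTS with 15 min preincubation.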
# % is scaled to controls: 0 for no effect and ±100 for the full control effect; potency is read from the fitted curve at half-maximal effect; tags tell the direction and shape of the fitted curve.
# UniProt Q96KQ7, sequence (Q96KQ7 whole entry, looked up): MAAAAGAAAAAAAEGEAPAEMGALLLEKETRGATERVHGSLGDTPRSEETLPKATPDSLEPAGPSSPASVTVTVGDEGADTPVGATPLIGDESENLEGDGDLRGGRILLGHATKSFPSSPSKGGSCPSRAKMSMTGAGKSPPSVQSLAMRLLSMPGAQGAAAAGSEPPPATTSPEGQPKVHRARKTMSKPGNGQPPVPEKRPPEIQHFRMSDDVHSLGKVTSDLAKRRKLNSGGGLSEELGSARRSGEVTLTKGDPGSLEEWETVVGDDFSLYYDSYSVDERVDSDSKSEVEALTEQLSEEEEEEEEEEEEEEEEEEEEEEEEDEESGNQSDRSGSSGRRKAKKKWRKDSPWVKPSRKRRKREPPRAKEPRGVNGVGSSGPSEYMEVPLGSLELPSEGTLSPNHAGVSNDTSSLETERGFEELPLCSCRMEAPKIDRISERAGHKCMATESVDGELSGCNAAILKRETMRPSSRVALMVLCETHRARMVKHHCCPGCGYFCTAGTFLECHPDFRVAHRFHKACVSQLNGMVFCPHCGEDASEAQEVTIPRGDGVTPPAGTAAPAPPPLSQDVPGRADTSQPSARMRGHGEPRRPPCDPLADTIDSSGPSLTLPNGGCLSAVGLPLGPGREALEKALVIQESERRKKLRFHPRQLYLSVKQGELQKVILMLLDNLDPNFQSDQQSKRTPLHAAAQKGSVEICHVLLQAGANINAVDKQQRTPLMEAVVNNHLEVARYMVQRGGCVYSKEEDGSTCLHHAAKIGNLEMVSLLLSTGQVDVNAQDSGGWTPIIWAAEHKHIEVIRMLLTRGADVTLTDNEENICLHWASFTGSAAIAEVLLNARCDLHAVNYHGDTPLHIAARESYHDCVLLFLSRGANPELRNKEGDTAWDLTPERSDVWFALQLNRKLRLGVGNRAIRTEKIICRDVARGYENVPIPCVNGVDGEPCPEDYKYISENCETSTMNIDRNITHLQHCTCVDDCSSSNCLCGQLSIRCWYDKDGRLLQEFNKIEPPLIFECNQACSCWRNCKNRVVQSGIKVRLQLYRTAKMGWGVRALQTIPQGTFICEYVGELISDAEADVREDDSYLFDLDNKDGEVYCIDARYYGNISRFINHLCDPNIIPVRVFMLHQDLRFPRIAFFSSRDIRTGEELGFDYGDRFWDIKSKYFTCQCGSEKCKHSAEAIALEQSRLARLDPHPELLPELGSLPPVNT
SMILES,Potency,"activity, negative = inhibition"
CN(CCC1CCCCO1)C(=O)CCc1nnc(Cc2c[nH]c3ccccc23)o1 (centres undefined),active: 79.4 µM,–
O=C(CN1CCCCC1)Nc1ccc(N2CCCCCC2)cc1,active: 17.8 µM,–
O=C(O)CN1C(=O)C(=O)N(Cc2c(F)cccc2Cl)C1=O,"inconclusive: 79.4 µM [inhibitor, partial curve, poor fit]",–
COc1ccc(C(CNC(=O)Cc2c(F)cccc2Cl)N2CCCCC2)cc1 (centres undefined),inactive,–
CCn1c(SCC(=O)N2CCCc3ccccc32)nnc1-c1cccs1,"inconclusive: 70.8 µM [inhibitor, single point]",–
CCC12CN3CCN(CC(C3)/C1=N\NC(=O)c1ccc(Cl)cc1)C2,inactive,–
Cc1ccc(-c2nc(N3CCN(C)CC3)c3ccccc3n2)cc1,"inconclusive: 70.8 µM [inhibitor, single point]",–
C/C(=N\NC(=O)c1c(Cl)cnn1C)c1cccc(NC(=O)COc2ccccc2)c1,inactive,–
COc1ccc(N2CCN(C(=O)CSc3nnc(C)c(=O)[nH]3)CC2)cc1,"inconclusive: 15.8 µM [inhibitor, full curve]",–
CCCSc1ncc(Cl)c(C(=O)N(Cc2ccccc2)c2ccc(OC)cc2)n1,inactive,–
Cc1ccc(C(=O)Nc2cccc(C(F)(F)F)c2)cc1NC(=O)c1nccn1C,–,inconclusive: -61.9% [inhibitor] [at 12.7 µM]
O=C(NNc1ccccc1[N+](=O)[O-])NC1CCCCC1,active: 50.1 µM,–
NS(=O)(=O)c1cc(C(=O)OC2CCOC2=O)ccc1Cl (centres undefined),"inconclusive: 31.6 µM [inhibitor, full curve]",–
Cn1ccc2c(OCC(=O)Nc3ccc(OC(F)(F)F)cc3)cccc2c1=O,inactive,–
CCCN(CC(=O)Nc1cc(Cl)ccc1Cl)C(=O)/C=C/c1ccco1,"inconclusive: 39.8 µM [inhibitor, single point]",–
O=C(COC(=O)c1ccc(Cl)nc1)Nc1c(Cl)cccc1C(F)(F)F,"inconclusive: 79.4 µM [inhibitor, partial curve, poor fit]",–
CC(NC(=O)Nc1ccc(O)cc1)(C(F)(F)F)C(F)(F)F,active: 11.2 µM,–
C/C(=N\NC(=S)NCc1ccccc1)c1cccs1,"inconclusive: 56.2 µM [inhibitor, single point]",–
CC(=O)C1=C(O)C(=O)N(CCCO)C1c1ccccc1 (centres undefined),–,inconclusive: -58.1% [inhibitor]
Oc1ccc(N2CCN(C(c3ccccn3)c3nnnn3C3CCCC3)CC2)cc1 (centres undefined),active: 1.78 µM,–
COc1cc2nc(SCC(=O)Nc3ccccc3C)n3nc(CCn4c(C)nc5ccccc54)nc3c2cc1OC,"inconclusive: 10 µM [inhibitor, partial curve, poor fit]",–
Cc1ccc(C(C)(C)NC(=O)C2CCC(=O)N(CC3CCCCC3)C2)cc1 (centres undefined),inactive,–

SMILES,Potency,"activity, negative = inhibition"
Cc1cccc(C(C(=O)NCc2ccc(F)cc2)N(C(=O)c2csnn2)C2CC2)c1 (centres undefined),inactive,–
Cc1cc2c(c(=O)o1)C(C1C=CCCC1)C(C#N)=C(N)O2 (centres undefined),"inconclusive: 63.1 µM [inhibitor, partial curve, poor fit]",–
COc1ccc(CNC(=O)C2=CC(c3ccc(OC)c(OC)c3)=NS(=O)(=O)N2C)cc1,"inconclusive: 25.1 µM [inhibitor, partial curve, poor fit]",–
Cc1[nH]n(-c2cccc3ccccc23)c(=O)c1/C=N/NC(=O)c1cccc([N+](=O)[O-])c1,"inconclusive: 39.8 µM [inhibitor, single point]",–
CCOC(=O)CSc1nc2ccc(NC(=O)COc3ccc(F)cc3)cc2s1,inactive,–
CCN(CC(=O)Nc1ccc(NC(C)=O)cc1)C(=O)c1cccnc1Sc1ccc(C)c(C)c1,active: 50.1 µM,–
Oc1cc2ccccc2cc1-c1n[nH]c(=S)n1Cc1ccco1,active: 1.58 µM,–
CCOC(=O)c1ccc(N2CCN(c3ccccc3OC)CC2)c(NC(=O)Nc2ccc(CC)cc2)c1,"inconclusive: 31.6 µM [inhibitor, partial curve, poor fit]",–
O=C1c2cccc3cccc(c23)C(=O)N1CCCCCc1n[nH]c(=S)o1,active: 2.51 µM,–
COc1ccc(CN2C(=O)c3c(c(C)n(C)c3C)C2C(=O)NC2CCC(C)CC2)cc1 (centres undefined),"inconclusive: 56.2 µM [inhibitor, partial curve, poor fit]",–
CCOC(=O)c1c(C)noc1-c1ccco1,inactive,–
CCN(C(=O)c1ccc(S(=O)(=O)N2CCCCC2)cc1)C1CCS(=O)(=O)C1 (centres undefined),"inconclusive: 3.16 µM [inhibitor, full curve, poor fit]",–
CN(C)c1ccc(C(CNC(=O)c2ccccc2Cl)N2CCCC2)cc1 (centres undefined),"inconclusive: 39.8 µM [inhibitor, partial curve, poor fit]",–
Cc1cc(C(F)F)nn1CC(=O)NCc1ccco1,"inconclusive: 22.4 µM [inhibitor, single point]",–
Cc1oc(-c2ccc(Cl)cc2)cc1-c1nn2c(-c3ccco3)nnc2s1,"inconclusive: 14.1 µM [inhibitor, partial curve, poor fit]",–
COc1ccc(S(=O)(=O)c2c(Nc3ccc(C)cc3C)sc(C(=O)c3ccc(F)cc3)c2N)cc1,"inconclusive: 39.8 µM [inhibitor, partial curve, poor fit]",–
CCn1ccnc1CN(C)Cc1cn(C)nc1-c1ccccc1F,"inconclusive: 56.2 µM [inhibitor, partial curve, poor fit]",–
Cc1c2cnn(CC(=O)NCCCN3CCCCC3)c(=O)c2c(C)n1Cc1ccccc1,"inconclusive: 89.1 µM [inhibitor, single point]",–
O=C1NCCCC1C(=O)N/N=C/c1ccccc1[N+](=O)[O-] (centres undefined),"inconclusive: 50.1 µM [inhibitor, partial curve, poor fit]",–
CCn1c(SC(=O)NC2CCCCC2)nnc1-c1cccs1,–,inconclusive: -133% [inhibitor]
CCOc1ccc(NC(=O)N(Cc2cn(CC)c3ccccc23)C2CCCCCC2)cc1,"inconclusive: 14.1 µM [inhibitor, partial curve, poor fit]",–
COC(=O)c1c(NC(=O)CS(=O)(=O)c2ccccc2)sc(C)c1C,–,inactive: 6.2% [at 0.501 µM]

# Reference: PubChem BioAssay AID504332 (National Center for Advancing Translational Sciences (NCATS), 2011)
